Reference: the antibiotic and cytotoxicity screens of Wong et al. (2023)
The list shows a part of the results.

Experiments:
HSkMC = human skeletal muscle cells; assay: cytotoxicity call (relative viability < 0.9); conditions: 10 µM
HepG2 = assay: cytotoxicity call (relative viability < 0.9); conditions: 10 µM
S. aureus RN4220 = assay: growth inhibition call (relative growth <= 0.2); conditions: 50 µM

Cc1ccc(S(=O)(=O)N[C@@H](Cc2ccccc2)C(=O)NCCn2cc(C(=O)NO)nn2)cc1
inactive: cytotoxicity call (HSkMC) | cytotoxicity call (HepG2) | growth inhibition call (S. aureus RN4220)

C[C@H]1CCCCO[C@@H](CN(C)C(=O)CCC(F)(F)F)[C@@H](C)CN([C@@H](C)CO)C(=O)c2cc(NC(=O)C3CCCCC3)ccc2O1
inactive: cytotoxicity call (HSkMC) | cytotoxicity call (HepG2) | growth inhibition call (S. aureus RN4220)

C[C@@H]1CN([C@H](C)CO)C(=O)c2cccc(NS(=O)(=O)c3ccccc3)c2O[C@H]1CN(C)CC1CC1
inactive: cytotoxicity call (HSkMC) | cytotoxicity call (HepG2) | growth inhibition call (S. aureus RN4220)

C[C@@H]1CN([C@@H](C)CO)C(=O)c2cc(NC(=O)Cc3ccccc3)ccc2O[C@@H](C)CCCCO[C@H]1CN(C)S(=O)(=O)c1ccc(Cl)cc1
inactive: cytotoxicity call (HSkMC) | cytotoxicity call (HepG2) | growth inhibition call (S. aureus RN4220)

C[C@H]1CN([C@@H](C)CO)C(=O)c2cc(C#Cc3ccccc3F)cnc2O[C@H]1CN(C)S(=O)(=O)c1ccccc1
inactive: cytotoxicity call (HSkMC) | cytotoxicity call (HepG2) | growth inhibition call (S. aureus RN4220)

C[C@@H]1CN([C@@H](C)CO)C(=O)c2cc(NC(=O)Cc3ccccc3)ccc2O[C@@H](C)CCCCO[C@H]1CN(C)Cc1ccncc1
inactive: cytotoxicity call (HSkMC) | cytotoxicity call (HepG2) | growth inhibition call (S. aureus RN4220)

C[C@@H]1CN([C@H](C)CO)S(=O)(=O)c2ccc(Br)cc2O[C@@H]1CN(C)C(=O)CN1CCOCC1
inactive: cytotoxicity call (HSkMC) | cytotoxicity call (HepG2) | growth inhibition call (S. aureus RN4220)

C[C@@H]1CN([C@H](C)CO)C(=O)c2cc(NC(=O)Cn3cnnn3)ccc2O[C@H]1CN(C)Cc1ccc(Oc2ccccc2)cc1
inactive: cytotoxicity call (HSkMC) | cytotoxicity call (HepG2) | growth inhibition call (S. aureus RN4220)

C[C@H](CO)N1C[C@H](C)[C@@H](CN(C)C(=O)Nc2ccc3c(c2)OCCO3)OCc2cnnn2CCCC1=O
inactive: cytotoxicity call (HSkMC) | cytotoxicity call (HepG2) | growth inhibition call (S. aureus RN4220)
